Measured values published in PubChem BioAssay AID1030 (National Center for Advancing Translational Sciences (NCATS), 2008).
Hit rate of the full screen: of about 220,000 compounds, about 16,000 (7.3%) were called active. This list was built around the results that the source calls inconclusive (neither active nor inactive); the mix of calls is not that of the screen. Calls follow the shape of the dose curve; as a rule, active = well fitted inhibition curve with a large enough effect (not every such curve was filed as active); inconclusive = small, poorly fitted or top-dose-only effect, or another doubt; inactive = no such curve, though single readings can be large or run the other way. Where the call is inconclusive, the potency comes from a doubtful curve fit.

biological target: Aldehyde dehydrogenase 1A1 (Homo sapiens) (UniProt P00352); experiment: qHTS Assay for Inhibitors of Aldehyde Dehydrogenase 1 (ALDH1A1); settings: Purified ALDH1A1, NADH fluorescence, propionaldehyde substrate; series mostly up to 75.3 µM;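 as to activity, negative = inhibition: plate controls were no enzyme wells and a reference inhibitor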
Sequence of UniProt P00352 (P00352 whole entry, looked up): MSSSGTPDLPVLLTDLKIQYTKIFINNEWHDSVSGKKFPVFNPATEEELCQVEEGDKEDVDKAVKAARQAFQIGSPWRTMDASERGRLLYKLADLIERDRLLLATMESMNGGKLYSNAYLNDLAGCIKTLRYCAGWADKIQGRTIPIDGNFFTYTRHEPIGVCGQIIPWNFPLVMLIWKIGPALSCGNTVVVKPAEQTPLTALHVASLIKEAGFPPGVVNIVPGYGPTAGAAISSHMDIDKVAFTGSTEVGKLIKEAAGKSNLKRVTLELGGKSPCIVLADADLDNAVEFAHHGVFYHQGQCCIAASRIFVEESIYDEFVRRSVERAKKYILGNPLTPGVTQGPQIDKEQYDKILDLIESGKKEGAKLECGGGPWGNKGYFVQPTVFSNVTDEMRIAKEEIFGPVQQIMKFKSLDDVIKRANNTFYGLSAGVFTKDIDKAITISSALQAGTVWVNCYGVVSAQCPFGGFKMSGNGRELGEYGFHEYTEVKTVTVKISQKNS
Potency is read from the fitted curve at half-maximal effect; tags tell the direction and shape of the fitted curve.

Potency, inactive:
O=C1OCCC1Sc1nnc(-c2ccccc2)o1 (configuration not stated)
O=C(COc1ccccc1)NN1C(=O)CSC1=S
Cc1ccccc1NC(NC(=O)OCCn1c([N+](=O)[O-])cnc1C)C(Cl)(Cl)Cl (configuration not stated)
Cc1cc(=O)[nH]c(SCC(=O)/C=C2\N(C)c3ccccc3C2(C)C)n1
Cc1nc([N+](=O)[O-])c(C(=O)OCc2ccc(C#N)cc2)n1C
CC(=O)OC1CC[C@@]2(C)C(CC[C@@]3(C)C2CC=C2C4CC(C)(C)CC[C@]4(C(=O)O)CC[C@@]23C)C1(C)C (some centres not stated)
O=c1[nH]c2ccccc2n2cnnc12
CCOc1cc(C)nc(NCCc2ccc(OC)c(OC)c2)n1
CCN(CC)S(=O)(=O)c1ccc(-c2nnc(SCC(=O)Nc3nc(C)cs3)o2)cc1
CCOc1ccc(N(CC(=O)Nc2ccc(OC)cc2)S(=O)(=O)c2c(C)[nH]c(=O)[nH]c2=O)cc1
Cn1ccnc1C(=O)c1ccc(S(=O)(=O)N2CCCC2)cc1
Cc1ccc(-c2csc(NC(=O)c3ccc(C)o3)n2)cc1
COc1ccc(-c2nn(C)c(=O)[nH]2)cc1
CCOC(=O)c1cc(-c2ccc(C)cc2)n(CCC(=O)N2CCN(c3ccccn3)CC2)c1C
O=C(NN1CCOCC1)c1cccc2ccccc12
CC(=O)Nc1nnc(Cc2c[nH]c3ccccc23)s1
CCOC(=O)/C(=N\Nc1ccc(OC)cc1)c1csc(Nc2ccccc2)n1
CC(=O)N(C)c1ccc(NS(=O)(=O)c2cc(Cl)ccc2Cl)cc1
NS(=O)(=O)c1cc2c(cc1Cl)N[C@@H]([C@@H]1C[C@@H]3C=C[C@H]1C3)NS2(=O)=O
CCOC(=O)c1cnc2c(N=Nc3ccccc3)c(N)nn2c1N

Potency, inconclusive:
Cc1nc(N2CCCCC2)c2c(C)c(C(=O)Nc3ccccc3C(F)(F)F)sc2n1 35.5 µM [inhibitor, single point]
Cn1c(NCc2cc(Br)ccc2O)nc2ccccc21 39.8 µM [inhibitor, single point]
CCOC(=O)c1[nH]c2ccc(C)cc2c1NC(=O)CN1CCCCC1 39.8 µM [inhibitor, single point]
S=c1[nH]nc(C2CCCCC2)n1Cc1ccccc1 28.2 µM [inhibitor, single point]
C/C(=C\c1ccco1)C1C(C#N)=C(N)Oc2n[nH]c(-c3ccccc3)c21 (configuration not stated) 39.8 µM [inhibitor, single point]
COc1ccc(/C(C)=N/NC(=O)c2ccc(CSc3cccc4cccnc34)cc2)cc1OC 31.6 µM [inhibitor, partial curve]
CCC/S(CC1CC1(Cl)Cl)=N\S(=O)(=O)c1ccc(C)cc1 (configuration not stated) 31.6 µM [inhibitor, single point]
CCN(CC)S(=O)(=O)c1cccc(C(=O)N[C@@H](C)c2nc3ccccc3[nH]2)c1 12.6 µM [inhibitor, single point]
COc1ccc(NC2C=CS(=O)(=O)C2)c(OC)c1 (configuration not stated) 39.8 µM [inhibitor, single point]
COc1ccccc1Nc1nc(C2(C)CCC(=O)O2)cs1 (configuration not stated) 31.6 µM [inhibitor, single point]
N#Cc1ccccc1Cn1cc(C#N)c2ccccc21 39.8 µM [inhibitor, single point]
CC(C)C[C@@H](/C=C/S(C)(=O)=O)NC(=O)[C@H](CC(C)C)NC(=O)[C@H](CC(C)C)NC(=O)OCc1ccccc1 44.7 µM [inhibitor, single point]
CN(C)C(=O)N1CCN(C(=O)c2ccccc2Sc2ccccc2C#N)CC1 39.8 µM [inhibitor, single point]
O=C(Nc1cnn(Cc2c(Cl)cccc2Cl)c1)C(c1ccccc1)c1ccccc1 31.6 µM [inhibitor, single point]
CC(C)C(=O)Nc1ccccc1N1CCN(C(=O)c2ccccc2)CC1 35.5 µM [inhibitor, single point]
CCOc1ccc(C2C(C#N)=C(N)N(c3sc4c(c3C#N)CCCC4)C3=C2C(=O)CCC3)cc1 (configuration not stated) 39.8 µM [inhibitor, single point]
CC(=O)c1cccc(NC(=O)NC2CCCc3ccccc32)c1 (configuration not stated) 35.5 µM [inhibitor, single point]
Cc1c(-c2nc(N)nc(Nc3ccccc3)n2)oc2ccccc12 39.8 µM [inhibitor, single point]
CCOC(=O)/C(=N\Nc1ccccc1Cl)N1CCN(Cc2ccccc2)CC1 15 µM [inhibitor, partial curve]
CCc1nnc(N2CCN(c3ncnc4c3oc3ccccc34)CC2)s1 35.5 µM [inhibitor, single point]
Cc1cccc(-n2cnc(C(=O)NNC(=S)Nc3ccc(Cl)cc3)c2)n1 28.2 µM [inhibitor, single point]
CC(Oc1ccccc1)C(=O)Nc1oc(-c2ccco2)c(-c2ccco2)c1C#N (configuration not stated) 35.5 µM [inhibitor, single point]
COCCOC(=O)C1=C(C)NC2=C(C(=O)CCC2)C1c1cc2c(cc1Br)OCO2 (configuration not stated) 39.8 µM [inhibitor, single point]
Cc1cccc(OCCCCCn2ccnc2)c1C 28.2 µM [inhibitor, single point]
Cn1nc(-c2ccc(Cl)cc2)c2cc(C(=O)NC3CC3)sc21 39.8 µM [inhibitor, single point]
CN(C)/C=C(\c1cnc(Cl)s1)S(=O)(=O)c1ccccc1 39.8 µM [inhibitor, single point]
O=C(O)C1=C[C@H](c2ccc(Br)cc2)C[C@H](OCc2ccc(CO)cc2)O1 25.1 µM [inhibitor, partial curve, poor fit]
COc1ccc(NC(=O)C2CCC(CNS(=O)(=O)c3cccs3)CC2)cc1 (configuration not stated) 0.447 µM [inhibitor, full curve]
Cn1c(/C=C/c2ccccc2)nc2ccccc21 28.2 µM [inhibitor, partial curve]
O=[N+]([O-])c1ccc(F)cc1OCc1nc(-c2cccs2)no1 39.8 µM [inhibitor, single point]
COC(=O)c1ccccc1NC(=O)C1CCCN(S(=O)(=O)c2ccc(OC)cc2)C1 (configuration not stated) 39.8 µM [inhibitor, single point]
O=[N+]([O-])c1ccc(Cl)c(S(=O)(=O)N2CCCCCC2)c1 25.1 µM [inhibitor, single point]
Cc1cnn(-c2ccc3nnc(-c4ccc(Cl)cc4)n3n2)c1 37.7 µM [inhibitor, single point]
Cc1ccc(C)c(S(=O)(=O)C(C#N)c2nc3ccccc3nc2N2CCCC2)c1 (configuration not stated) 39.8 µM [inhibitor, single point]
CC12C=CC3(CN(Cc4ccccc4)C(=O)C3C1C(=O)NC1CC1)O2 (configuration not stated) 44.7 µM [inhibitor, single point]
O=Cc1ccc(Oc2ncccn2)cc1 12.6 µM [inhibitor, partial curve]
CCc1cccc(N(C(=O)c2csnn2)C(C(=O)NC(C)(C)C)c2ccccn2)c1 (configuration not stated) 10 µM [inhibitor, partial curve]
S=C(Nc1ccccc1)N1CCN(c2ccc(N3CCOCC3)nn2)CC1 39.8 µM [inhibitor, single point]
Cc1ccc(CNC(=O)/C(C#N)=C\c2ccc(N(C)C)cc2)cc1 39.8 µM [inhibitor, single point]
CCOC(=O)c1c(NC(=O)c2nn(CC)cc2Br)c(C#N)nn1-c1ccccc1 14.1 µM [inhibitor, partial curve]
S=C1SCN(Cc2ccccn2)CN1Cc1ccco1 39.8 µM [inhibitor, single point]
Cc1ccc(NC(=S)NC(=O)c2sc3ccccc3c2Cl)c(C(=O)O)c1 31.6 µM [inhibitor, partial curve]

Potency, active:
S=c1nc[nH]c2nc[nH]c12 7.94 µM
COc1ccc(NC(=O)CSc2nnnn2C)c([N+](=O)[O-])c1 28.2 µM
O=C(CCNS(=O)(=O)c1cccc2nonc12)NCc1cccs1 20 µM
COc1ccc(NCc2nnc(SCC(=O)N3CCCc4ccccc43)n2C)cc1 3.16 µM
CCOc1ccc(N(CCCCO)C(=S)NC(=O)c2ccc(C)c(Br)c2)cc1 22.4 µM
COc1ccc(C[C@@H]2CN3C(=NC[C@@H]3C)N2C[C@H](C)NC(=O)CCC2CCCCC2)cc1 7.08 µM
COc1ccccc1N1CCN(C(c2ccc(N(C)C)cc2)c2nnnn2CCc2ccccc2)CC1 (configuration not stated) 22.4 µM
CC(C)CCn1c(SCC(=O)c2ccccc2)nc2c1c(=O)[nH]c(=O)n2C 17.8 µM

activity, negative = inhibition, inactive:
O=C(Nc1ccc2c(c1)Cc1ccccc1-2)[C@@H]1[C@H](C(=O)O)[C@]2(Cl)C(Cl)=C(Cl)[C@@]1(Cl)C2(Cl)Cl -0.689% [at 13.5 µM]
O=C(O)CCc1nc2ccccc2[nH]1 13.4% [at 13.5 µM]
